According to the supplement of paper PMC3334620:
In all, about 33,000 sequences were measured (“E-score (-0.5 to 0.5)”: median about -0.054, highest 2% from about 0.35 on). The list shows a part of the results.

Each sequence was assayed against T1, Stb5 (UniProt P38699) (assay: PBM E-score (8-mer binding enrichment) (E-score (-0.5 to 0.5)); higher = stronger / more preferred TF binding; most listed sequences are background and not binding sites). Details: protein concentration: 200 nM; construct: GST-full length.
T1 sequence: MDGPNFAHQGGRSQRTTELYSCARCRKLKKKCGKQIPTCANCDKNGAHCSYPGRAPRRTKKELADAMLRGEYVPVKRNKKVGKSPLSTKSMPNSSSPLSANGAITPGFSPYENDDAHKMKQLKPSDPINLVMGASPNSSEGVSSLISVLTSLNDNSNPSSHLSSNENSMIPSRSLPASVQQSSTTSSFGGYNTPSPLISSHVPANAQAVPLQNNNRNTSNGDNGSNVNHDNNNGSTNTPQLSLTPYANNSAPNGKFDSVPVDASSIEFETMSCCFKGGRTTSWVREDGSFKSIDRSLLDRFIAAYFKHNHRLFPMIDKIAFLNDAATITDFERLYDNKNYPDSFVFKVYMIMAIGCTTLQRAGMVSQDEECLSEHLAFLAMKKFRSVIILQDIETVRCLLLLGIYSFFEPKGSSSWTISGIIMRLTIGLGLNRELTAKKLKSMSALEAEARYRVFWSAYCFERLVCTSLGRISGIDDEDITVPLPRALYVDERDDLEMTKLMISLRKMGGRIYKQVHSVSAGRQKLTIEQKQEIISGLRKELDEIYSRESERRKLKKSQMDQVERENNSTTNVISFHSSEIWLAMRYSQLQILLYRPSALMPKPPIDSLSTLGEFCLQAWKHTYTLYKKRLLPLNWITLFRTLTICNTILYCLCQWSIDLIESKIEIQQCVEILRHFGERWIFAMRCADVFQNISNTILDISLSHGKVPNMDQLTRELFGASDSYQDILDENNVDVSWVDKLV
Protocol: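 Universal 'all 10-mer' protein binding microarrays (Agilent AMADID 015681) probed with GST-tagged S. cerevisiae TFs (full-length or DBD) made by in vitro transcription/translation (PURExpress), about 100-200 nM. Bound TF was detected with fluorescent anti-GST. Each ungapped 8-mer (which stands for itself and its reverse complement) is scored by the PBM enrichment score (E-score), a modified Wilcoxon-Mann-Whitney statistic from -0.5 to +0.5, computed with the Universal PBM Analysis Suite. Scale: above 0.35 generally sequence-specific binding.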

| Sequence | PBM E-score |
| --- | --- |
| AATACGGC | 0.104 |
| AGTTGTGA | -0.238 |
| ACGAATAC | -0.154 |
| GGAAACAA | -0.11 |
| CCAAACAA | 0.00788 |
| ACACCATG | -0.0934 |
| CCTTGTAA | -0.0634 |
| CCGCCCGC | 0.362 |
| ATTATTGC | 0.121 |
| GATCAGAC | -0.106 |
| AAGCCTCG | -0.112 |
| TAGATTAA | -0.135 |
| CGAGCGTC | -0.0512 |
| CCTTCGAA | -0.00989 |
| CCCGGCTC | 0.0435 |
| AGACTCTA | -0.304 |
| AACAATCC | 0.0806 |
| CAATCAAA | -0.298 |
| CCCCTGTA | 0.118 |
| CGGCTGTC | 0.00374 |
| ACACTAAT | -0.249 |
| CTATCGGC | 0.235 |
| AAGGCGAC | 0.042 |
| CGTTGTGC | 0.138 |
| ACGGCAGT | 0.202 |

| Sequence | PBM E-score |
| --- | --- |
| CACACTCG | -0.0743 |
| CAGCTGAC | -0.152 |
| CACGTCGC | -0.066 |
| GCAGGAGC | -0.201 |
| ATCCACAA | -0.168 |
| GAGATATA | 0.149 |
| ATTCCTTC | -0.0881 |
| AAGTTGCA | -0.0624 |
| AAGCGGCA | 0.344 |
| GAAGCAAA | -0.293 |
| AGTACGAT | -0.165 |
| CGGGGCGA | 0.317 |
| AACCCAAG | -0.199 |
| CAGTAGGC | -0.268 |
| TGTACGAA | -0.0429 |
| CCGCGCGA | 0.168 |
| GTTATATA | 0.108 |
| CTCGAGAC | -0.187 |
| ATCAACTC | -0.195 |
| CTTGTGGC | -0.163 |
| ATTATAAT | 0.226 |
| CACTTAAC | -0.222 |
| ACCTCCGT | 0.302 |
| GTACGTTA | 0.0679 |
| GGGTCTTA | 0.206 |

| Sequence | PBM E-score |
| --- | --- |
| CACGGCAC | 0.176 |
| ACAATCAG | -0.142 |
| ACGCCAGT | -0.112 |
| ACCAACTC | -0.184 |
| CCAGAAAC | -0.0591 |
| AGTCTAAA | -0.149 |
| CTTATACC | 0.195 |
| CTTCCGAC | 0.173 |
| GGGGCCCC | 0.13 |
| GTTTCGTA | 0.00765 |
| CAGCGCGA | -0.0672 |
| GGTCTCTA | 0.0052 |
| AGCATAGC | -0.298 |
| CGCTACCG | 0.16 |
| AGCGATCA | -0.0493 |
| GGAGTAAC | 0.193 |
| GCATCCCA | -0.0879 |
| GGTTGGTA | -0.117 |
| AAAGCAGG | -0.00496 |
| TGCCGGCA | 0.323 |
| CATGGGGG | -0.25 |
| GCCCCGAA | 0.198 |
| CAGCTCTA | -0.232 |
| CTATGATA | -0.156 |
| GTGCAGGA | -0.0864 |

| Sequence | PBM E-score |
| --- | --- |
| AAGTTCCG | 0.373 |
| AAACGGGA | 0.313 |
| AAGCTCCT | -0.165 |
| AAAAATCG | -0.206 |
| ACTTCTTA | 0.0335 |
| TACTGAGA | -0.123 |
| AGCCTGCA | -0.249 |
| CTATATAG | -0.193 |
| ATTGCCGA | 0.318 |
| CTTCCCCA | -0.184 |
| AGAATGGA | -0.168 |
| CCAATTTA | 0.119 |
| CCAGTAAC | -0.0964 |
| AACGCCTC | -0.064 |
| GGTGTACA | 0.0639 |
| CTAAAGTA | -0.066 |
| ACCCGTAG | -0.128 |
| ACAACCTC | -0.136 |
| CGCTTATC | -0.0495 |
| CAGGGGCG | 0.0444 |
| ATCGCAAG | -0.244 |
| AACGACCT | -0.125 |
| CATTGCGG | 0.113 |
| CTGTGTGA | -0.205 |
| GCGTGTGA | 0.00138 |

| Sequence | PBM E-score |
| --- | --- |
| TTCATGAA | -0.0712 |
| ACTTGTAC | 0.0764 |
| CCTCTTCC | -0.246 |
| ATGGTAGC | -0.0736 |
| GACGAACC | -0.0453 |
| TACCCTCA | -0.168 |
| GCCCAGTA | -0.257 |
| AGGGGCTC | -0.354 |
| CCAGCGCA | -0.0805 |
| GTTACAAA | -0.0479 |
| AAGGTACC | -0.0569 |
| CGCGGTTC | 0.205 |
| TAAGCGTA | -0.235 |
| GAGGCACA | -0.105 |
| AGGAGGCG | -0.0399 |
| CAGGTAGA | -0.0499 |
| CTTCCATA | -0.163 |
| CAGGAAGG | -0.237 |
| AGATGATG | -0.173 |
| ACCCCAGT | -0.0317 |
| GTCGTTTA | -0.0556 |
| GGGGGGCA | -0.252 |
| GGCCGTTA | 0.213 |
| GGCTAGCC | -0.149 |
| ACGGGCTG | 0.102 |

| Sequence | PBM E-score |
| --- | --- |
| AGTTAACG | 0.0386 |
| TGACCCCA | -0.112 |
| CAGTCTAA | 0.00323 |
| TCGGTAGA | 0.108 |
| AAAATCTT | -0.12 |
| AGAGGGAG | -0.367 |
| CTTAGACC | 0.0337 |
| ACCGGCAC | 0.373 |
| ACAGTGAG | -0.383 |
| CCTTCCAC | -0.101 |
| CTTAGCTC | 0.144 |
| GGGCATTA | 0.176 |
| AATTACCT | -0.152 |
| GCTCACTA | -0.229 |
| CCTCATGA | -0.054 |
| TCACATCA | -0.231 |
| ACCTAGTC | -0.134 |
| AGGGCTAT | -0.228 |
| ATCCGTTG | 0.158 |
| TACACGAA | 0.105 |
| GACCACCC | -0.203 |
| ATGGATGA | -0.187 |
| CAAGAGGG | -0.306 |
| AGGAGTTA | 0.287 |
| TACGGGAA | 0.271 |

| Sequence | PBM E-score |
| --- | --- |
| CGGGAGAA | 0.0541 |
| ACCACCCG | 0.0381 |
| AACGTATG | -0.248 |
| ACTATGAC | -0.057 |
| ATTTGTCG | 0.0123 |
| ACGAACTG | -0.15 |
| AAATTACG | -0.165 |
| AGGGATGC | -0.264 |
| ACGTAAGT | -0.0909 |
| AAGCCTTG | -0.289 |
| ATACGATA | -0.11 |
| GCCTGGCC | -0.0528 |
| CCGGAGCC | 0.182 |
| ACCTTGAA | -0.276 |
| CCTATCCA | -0.0932 |
| GACTATGC | -0.199 |
| CATAAGGA | -0.0433 |
| AGTCATCC | -0.13 |
| CAGCCCGG | 0.246 |
| GCGCGTAC | 0.0419 |
| ACTCTTGG | -0.13 |
| CTCCGACA | 0.366 |
